Assay results published in PubChem BioAssay AID1030 (National Center for Advancing Translational Sciences (NCATS), 2008).
Hit rate of the full screen: of about 220,000 compounds, about 16,000 (7.3%) were called active. Inconclusive means that the source gave no clear call. Such entries were picked first, then a sample of the others. Calls come from the whole dose curve; as a rule, active = well fitted inhibition curve with a large enough effect (not every such curve was filed as active); inconclusive = small, poorly fitted or top-dose-only effect, or another doubt; inactive = no such curve, though single readings can be large or run the other way. Potencies of inconclusive entries are left out as doubtful fits.

The compounds below were run against Aldehyde dehydrogenase 1A1 (Homo sapiens) (UniProt P00352) (assay: qHTS Assay for Inhibitors of Aldehyde Dehydrogenase 1 (ALDH1A1)). Conditions: Purified ALDH1A1, NADH fluorescence, propionaldehyde substrate; series mostly up to 75.3 µM.
Potency is the fitted concentration of half-maximal effect; tags give direction and shape of the fitted curve.
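Throughout, for activity, negative = inhibition: plate controls were no enzyme wells and a reference inhibitor.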

UniProt P00352, sequence (P00352 whole entry, looked up): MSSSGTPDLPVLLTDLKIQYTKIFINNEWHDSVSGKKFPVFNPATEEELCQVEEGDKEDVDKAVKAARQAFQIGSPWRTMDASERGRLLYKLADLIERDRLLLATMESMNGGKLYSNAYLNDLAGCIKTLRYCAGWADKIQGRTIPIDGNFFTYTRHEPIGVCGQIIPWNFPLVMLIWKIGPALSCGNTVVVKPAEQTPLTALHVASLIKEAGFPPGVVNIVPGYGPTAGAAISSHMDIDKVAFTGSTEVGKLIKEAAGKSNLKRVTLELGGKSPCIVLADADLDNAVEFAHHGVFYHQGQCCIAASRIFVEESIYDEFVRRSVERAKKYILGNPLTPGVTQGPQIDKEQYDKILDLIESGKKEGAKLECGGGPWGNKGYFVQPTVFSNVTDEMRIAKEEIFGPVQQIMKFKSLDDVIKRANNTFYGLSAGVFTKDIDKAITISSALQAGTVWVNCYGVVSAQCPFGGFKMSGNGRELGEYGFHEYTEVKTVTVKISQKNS

SMILES | Potency | activity, negative = inhibition
CS(=O)(=O)N1CCc2cc(-c3csc(NCC4CCCO4)n3)ccc21 (centres undefined) | active: 14.1 µM | 
CCCCc1ccc(NC=C2C(=O)OC3(CCCCC3)OC2=O)cc1 | inconclusive [inhibitor, partial curve] | 
CC(=O)c1ccc(N2CCN(C(=O)c3cc4c(s3)CCCC4)CC2)cc1 | active: 22.4 µM | 
Nc1[nH]nc2nc3ccccc3cc12 | inactive | 
CCC(=O)c1ccc(OCC(=O)O)cc1 | inactive | 
O=C(NCCO)C(=O)NCC1OCCCN1S(=O)(=O)c1cccs1 (centres undefined) | active: 17.8 µM | 
CNC(=O)c1[nH]cnc1C(=O)N[C@@H](CC(C)C)C(=O)OC(C)(C)C | inconclusive [inhibitor, partial curve] | 
CSCCCNC(=S)N1CCN(S(=O)(=O)c2cccc(C(F)(F)F)c2)CC1 | inactive | 
COc1ccc2c(c1)CCc1c(C(=O)N3CCc4ccccc4C3)noc1-2 | inconclusive [inhibitor, partial curve] | 
Cc1ccc(C(=O)OCC(=O)Nc2nc(-c3ccccc3)cs2)cc1NC(=O)c1ccco1 | inconclusive [inhibitor, single point] | 
CCc1ccc(CC)c(S(=O)(=O)Nc2ccc(C(=O)O)c(O)c2)c1 | inconclusive [inhibitor, partial curve] | 
CCCCC(=NCCc1c(C)[nH]c2ccccc12)C1=C(O)CC(c2ccccc2)CC1=O (centres undefined) | inconclusive [inhibitor, partial curve, poor fit] | 
CC1CCc2sc(C(=O)NCc3ccc(F)cc3)cc2C1 (centres undefined) | inconclusive [inhibitor, single point] | 
Cc1nn(Cc2ccccc2Cl)c2sc(C(=O)NCCCn3ccnc3)cc12 | inconclusive [inhibitor, single point] | 
C(=N/n1c2ccccc2c2ccccc21)/c1ccco1 | active: 10 µM | 
Cc1ccc(CNC(=O)Cc2cccs2)cc1 | inactive | 
O=C1C(Cl)=C(Sc2nnc3c4ccccc4c4ccccc4c3n2)C(=O)c2ccccc21 | inconclusive [inhibitor, partial curve] | 
Nn1c(-c2ccccc2Cl)nnc1-c1ccccc1Cl | inconclusive [inhibitor, single point] | 
CO/N=C(\c1nonc1N)N1CCN(c2ccc([N+](=O)[O-])cc2Cl)CC1 | inconclusive [inhibitor, partial curve, poor fit] | 
CCN(CC)CCOC(c1ccccc1)c1ccc(C)cc1 (centres undefined) | inactive | 
O=C(COc1ccc(Cl)cc1Cl)NC(=S)Nc1ccc(CN2CCOCC2)cc1 | inconclusive [inhibitor, single point] | 
O=C(CN1CCSCC1)N/N=C/c1ccc(F)cc1 | inconclusive [inhibitor, partial curve] | 
Cn1ncc2c(Nc3ccc(Br)cc3)nc(Nc3ccc(Br)cc3)nc21 | inconclusive [inhibitor, single point] | 
O=C(Nc1ccccc1N1CCOCC1)c1cc(Br)c(Br)s1 | inactive | 
COC(=O)NNS(=O)(=O)c1ccc(C)cc1 | inactive | 

SMILES | Potency | activity, negative = inhibition
COc1cc(C(=O)NCc2nnc(SCC(=O)Nc3cccc(C)c3)o2)cc(OC)c1OC | inconclusive [inhibitor, partial curve] | 
Cc1cc(C)c(NC(=O)COc2ccccc2C(=O)Nc2ccc3c(c2)oc2ccccc23)c(C)c1 | inconclusive [inhibitor, partial curve] | 
O=C(O)c1cnn(-c2nc(-c3cccc(F)c3)cs2)c1C(F)(F)F | inconclusive [inhibitor, single point] | 
COc1ccc2c(c1OC)C(=O)OC2Nc1nc(-c2cccc([N+](=O)[O-])c2)cs1 (centres undefined) | inconclusive [inhibitor, single point] | 
CCOC(=O)c1c(C)c(C(=O)NCc2ccc3c(c2)OCO3)c(C)n1C | inconclusive [inhibitor, partial curve] | 
CCOc1cc2c(cc1OC)C(c1cccc([N+](=O)[O-])c1)NCC2 (centres undefined) | inactive | 
O=C(c1cccc(F)c1)N1CCN(C(=O)c2cc(-c3ccc(Cl)cc3Cl)on2)CC1 | inconclusive [inhibitor, single point] | 
COc1ccc(CC(=O)Nc2ccc(-c3cn4ccccc4n3)cc2)cc1 | inconclusive [inhibitor, partial curve] | 
COc1ccc(C2CC(c3cccs3)=NN2c2ccccc2)cc1 (centres undefined) | inconclusive [inhibitor, partial curve] | 
CCCCn1nc2cc(C(=O)NC3CCCc4ccccc43)ccc2c1OCC (centres undefined) | inconclusive [inhibitor, single point] | 
CC(=O)c1ccc(N2CCN(C(=S)Nc3cccc(F)c3)CC2)cc1 | inactive | 
Cc1ccc(-c2nc(=S)c3c(n2Cc2ccco2)CC(C)(C)OC3)cc1 | inconclusive [inhibitor, full curve] | 
COc1ccc(C(=O)Nc2ncc3c(n2)-c2ccccc2CC3)cc1 | inconclusive [inhibitor, single point] | 
COc1cc(C/C=C\c2ccccc2)c(OC)cc1O | active: 25.1 µM | 
O=C(/C(=C(\[O-])c1ccccc1)[n+]1ccc2ccccc2c1)c1ccc(Cl)cc1 | inconclusive [inhibitor, single point] | 
CCCc1cc(C(=O)Cc2ccc(C(=O)OCC)o2)c(O)cc1O | inconclusive [inhibitor, partial curve] | 
CCC(C)NC(=O)CCS(=O)(=O)c1ccc2c(c1)n(C)c(=O)c(=O)n2C (centres undefined) | inconclusive [inhibitor, single point] | 
CCn1c(Cc2ccc(OC)cc2)nnc1SCC(=O)Nc1cccc(C(=O)OC)c1 | inactive | 
NC(=O)N/N=C/c1cn(-c2ccccc2)nc1-c1cccnc1 | inconclusive [inhibitor, partial curve] | 
C=CCOc1ccc(C2C(C(=O)c3ccco3)=C(O)C(=O)N2c2nnc(C)s2)cc1 (centres undefined) | inconclusive [inhibitor, single point] | 
NC(N)=NCCCCN=C(N)N | inactive | 
O=C(CN1CCN(Cc2ccccc2)CC1)NCC1COc2ccccc2O1 (centres undefined) | inconclusive [inhibitor, single point] | 
O=C(NC1=NCCS1)c1ccc(N2CCCC2=O)cc1 | inactive | 
CC1CCCN(CC(O)COC(c2ccccc2)c2ccccc2)C1 (centres undefined) | inactive | 
O=C(O)c1cc(N/N=C2/CC(c3ccccc3)Oc3ccccc32)ccc1Cl (centres undefined) | inconclusive [inhibitor, single point] | 

SMILES | Potency | activity, negative = inhibition
CCCCOc1ccccc1Cn1c(=O)oc2ccccc21 | inconclusive [inhibitor, partial curve] | 
COc1ccc(C(=O)N/N=c2\oc3ccccc3cc2C(=O)NCc2ccccc2)cc1 | active: 11.2 µM | 
COCCn1c(SCC(=O)c2ccc(Cl)cc2)nnc1C(C)C | active: 9.46 µM | 
CCOc1cccc2sc(N(CCN(C)C)C(=O)c3ccc(Br)s3)nc12 | inactive | 
COc1ccc(CCCO[C@@H](Cn2ccnc2)c2ccc(OC)cc2)cc1 | inconclusive [inhibitor, partial curve] | 
CCc1ncc(C(=O)c2ccc(OC)cc2)n1C | inconclusive [inhibitor, single point] | 
S=C(NCc1cccs1)Nc1cccc(Cl)c1Cl | inconclusive [inhibitor, single point] | 
CCCOc1ccc(CCc2n[nH]c(=S)n2-c2ccccc2)cc1 | inconclusive [inhibitor, single point] | 
CCN(CC)C(=O)c1ccc(COc2ccccc2Cl)cc1 | inconclusive [inhibitor, partial curve, poor fit] | 
NC(=O)SCC(=O)Nc1ccc(Cl)c(Cl)c1 | inconclusive [inhibitor, partial curve] | 
O=c1cc(NCc2ccc3c(c2)OCO3)[nH]c(=O)n1-c1ccc(Cl)cc1 | inactive | 
CC(C)NC(=O)N1CC[C@@]2(CCCN(C(=O)c3cnccn3)C2)C1 | inactive | 
O=C1CC(NNc2ccccc2)C(=O)N1c1ccccc1 (centres undefined) | active: 17.8 µM | 
Cc1ccc(C2C3=C(CC(C)(C)CC3=O)NC3=C2C(=O)CC(C)(C)C3)o1 | inconclusive [inhibitor, single point] | 
O=C(Nc1ccc2[nH]c(=S)sc2c1)Nc1ccccc1F | active: 1 µM | 
Clc1ccc2c(NNc3ccccc3Cl)ccnc2c1 | inactive | 
Cc1cc(=O)oc2cc(OCC(=O)NCC3CCCO3)ccc12 (centres undefined) | inconclusive [inhibitor, partial curve] | 
COc1ccc(CNC(=O)CS(=O)Cc2nc(-c3ccccc3C)oc2C)cc1 (centres undefined) | inconclusive [inhibitor, partial curve] | 
c1ccc(COc2ccc(Oc3nc(N4CCCCC4)nc(N4CCOCC4)n3)nn2)cc1 | inconclusive [inhibitor, single point] | 
O=C(CN1C(=O)NC2(CCSC2)C1=O)NCc1ccccc1 (centres undefined) | inactive | 
O=C(CSCc1ccc([N+](=O)[O-])cc1)Nc1ccccc1C(=O)O | inactive | 
Cc1ccc(S(=O)(=O)Cc2ccc(C(=O)O)o2)cc1 | active: 8.91 µM | 
O=C(/C=C/c1ccc2c(c1)OCO2)NCc1ccco1 | inconclusive [inhibitor, single point] | 
COc1ccc(C[C@@H]2C(=O)N[C@H](C)C(=O)N(C)[C@@H]3Cc4ccc(cc4)Oc4cc(ccc4O)C[C@H](C(=O)N[C@@H](C)C(=O)N[C@H](C)C(=O)N2C)N(C)C3=O)cc1 |  | inactive: -0.157% [at 13.5 µM]
